# The list shows a part of the results.
# System: PfHDP1 homeodomain (GST-tagged)
# Test: gcPBM binding intensity (ln(normalized median fluorescence intensity)); higher = stronger DNA binding
# In short: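 Probes on an Agilent 4 × 180k array were primer-extended, double-stranded and 36 bp long, taken from intergenic genomic regions, with negative controls added. GST-tagged P. falciparum DNA-binding domains from E. coli, about 25 μg on average, were applied to the array for 1 h in 1× PBS containing 1% milk, 0.2 mg/ml BSA, 0.5% salmon testes DNA and 0.03% Triton X-100. Binding intensity, obtained after Alexa488 anti-GST antibody detection and a 488 nm scan, is the highest Masliner-normalised natural-log median intensity across replicate spots of either probe orientation.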
row,Sequence,gcPBM binding intensity (ln)
1,TGTATTATAATATTATGTACTTATAAATTTTATATT [XGTACX_site6432],6.5
2,ATATTATTATAAAGTGGTACAATAAATGGTATTATA [XGTACX_site391],6.23
3,TGGGTGGTAAAAATGTGTACATAAAAAAATAATGTT [XGTACX_site2235],7.11
4,TCTCACATTCTTATGGGTACACATGAGAAATTATAA [XGTACX_site6799],6.45
5,TTATTGGTTATATAAAGTACATTTGAAATATAATTG [XGTACX_site6553],6.07
6,ATAATAATTTTATGCACACAGAAAAATACAAGGTTA [CACACA_site3510],10.1
7,TTTTCTTGGTATATGATTTATCCTAAATAAGTAAAT [CACACA_negctrl_site294],6.22
8,TTGCCTGACTTGTTCACACATATTTATGATATACAT [CACACA_site5783],6.56
9,TTAGAATTTAGAGAAGTGCATATTAAGTTACGAATT [GTGCAC_site9861],8.56
10,AAAAAAAATATATATATTAAAGTTTTAATTTTTATA [CACACA_negctrl_site497],6.14
11,ATTATATATATATATAGTACTTTTTTTTTTTTTTTT [XGTACX_site8801],6.41
12,TATATATATGGGTTTACACACAATAATGAATTAAAA [CACACA_site915],6.34
13,CCCATGCATTTTTGCACACACATATATTTATAAATA [CACACA_site6785],10.7
14,CCCACAGACGGACACACACACACATATATATATATA [CACACA_site4352],9.18
15,TCAAGTTTATATTAACTATTTATGAAAAAAAAAAGA [CACACA_negctrl_site902],6.32
16,TATAAGGCAATAATAGTGCACTAAGATATATAATGA,10.7
17,ATATATTACAAATGGAGTACTAAAAATATTCTATAT [XGTACX_site6669],6.67
18,CTAAAAATTTTAATTGCACACCACGTTGGACTATTT [CACACA_site1489],9.83
19,TTACACTAAATATGTTCACACATTTTTTCCATCATA [CACACA_site4647],6.59
20,TACAAAAGTTAAACATGTACTTAATTATATGTTTTT [XGTACX_site2852],6.12
21,ATAAAAATGGATGAATATAAAAAAAAAAAAATATAT [CACACA_negctrl_site182],6.63
22,GAATATATAAGAACAAATATGGCTTAGAAAAAAAAA [TGCATGCA_negctrl_site451],6.05
23,AAAAAAAAATAAAAATGTACATATATAATATTATAT [XGTACX_site71],6.95

row,Sequence,gcPBM binding intensity (ln)
1,AAAAAATGGCTAGTTTGTACACAAAAGTTATTGCAT [XGTACX_site5381],6.32
2,ATATAATATACTTATTGTACTTATTTAAAATACTAA [XGTACX_site4266],6.18
3,AAGATAAAATTATGCACACATACGAATAATTTTAAA [CACACA_site1705],10.1
4,TTTCTCAATTCTTAGAGTACATAAATAAAAAAAAAA [XGTACX_site7639],6.21
5,CATATATATAAATACACACACACACCCCTTATAATT [CACACA_site4064],7.18
6,TAGGAGCCGAAACACACACACAAAAAAAAAAAAAAA [CACACA_site1731],6.36
7,TTTTACAATAACAATACACACTATAATATATATATA [CACACA_site4893],8.26
8,AAAAGAATTTGAAGTCGTACAATATCTATTATATGA [XGTACX_site8275],6.25
9,TGCATTTTCCTATTTGCATGCAATTAAAATATAGAA [TGCATGCA_site862],7.44
10,GATTATTTAAAATATACATGCGCGCACATATGCATA [TGCATGCA_site630],7.74
11,AACATATATACAGTAACACACACAAAAAAATATGAA [CACACA_site9323],7
12,ATGTTTTAATGAGGTTTGCACTATATTTTAATGAAC,8.81
13,TTAACTTTTATATAGTGTACAAATAAATGCATACAG [XGTACX_site5958],6.86
14,TTATTATTTAACATGTGGACACAAAAATTTAAGGGT [XGTACX_site4638],6.75
15,AAAAAACAAAAACACACACACACATATATATATATA [CACACA_site3654],9.16
16,ATCACTAACATGTGTTGTACATAAAATTTGTTTGTT [XGTACX_site2207],6.57
17,TGAACACAGACAAATACACACAAAAAAAATAAATAA [CACACA_site4298],6.62
18,TATTATGTATAAAGAAGTACTTTTTTTTTTTTTTTC [XGTACX_site201],5.82
19,TGCAAATTTAACAAAAAAAAAAAAAAAAAAAAAAAA [GTGCAC_negctrl_site64],6.38
20,TCTACTACTTAATGGAGTACTAGCTTCATAATATTA [XGTACX_site7030],5.97
21,TTTGAAATGATATATAAACACACATATATATATATA [CACACA_site9170],9.18
22,CTAACAACCAAACGCACACACACAAAAAAAAAAATA [CACACA_site400],7.71
23,AACAACTATTAATTTACACACATGTATATATCTTAC [CACACA_site7459],6.83

row,Sequence,gcPBM binding intensity (ln)
1,TATTAAAAGGTGAGTACACACATATATGCGTATATA [CACACA_site2102],6.65
2,ATATTGAATTCCAACACATGCAAAACTTTCGGTTTT [TGCATGCA_site485],6.88
3,TATTTTACACATTTACGTACATAAATATATATATAT [XGTACX_site8788],8.72
4,AGACATTTTTAAGCAAAACATTCATCATCTTATAAT [CACACA_negctrl_site1539],6.51
5,TACGCACAAAAATATACACACACACCGATATATTTA [CACACA_site9213],7.51
6,TACATATATATTTGTTCACACACACCCAAAAAAAAA [CACACA_site8788],6.97
7,TCTATGTAGTTTTTATGTACTAAATAAATAAATAAA [XGTACX_site2599],6.29
8,TAGAAGCAGAAACACACACACATACATACACATACA [CACACA_site1467],6.92
9,ACTATTAACAGTGTAGTGCAAAAAGGTTAATTATTA,9.67
10,TAAATGTCCTTATTTGCACACACACCGATAAGAAAT [CACACA_site5723],10
11,GCATTCATTTTTAATACACACAAAAAAAAAATAAAA [CACACA_site2408],6.64
12,TTTTCAATATATATTTGTACTTTATTTTATGATATT [GTGCAC_negctrl_site732],6.71
13,GTGATACGCTATAGGACACACGCTTAATAATTATAA [CACACA_site1694],6.21
14,AAATTGTCAAAACACGCACACACATATACATAATAA [CACACA_site1743],7.31
15,ATCATAAATTATTATACACACAATACGTGACCTATT [CACACA_site1906],7.12
16,TTCTTTTATAAAAGTAGTACAATTATATTGTAATTA [XGTACX_site2855],6.23
17,TCTTTTATATTGTAGAGTACATATTTTCAATATATA [XGTACX_site5586],6.17
18,AAAAAAAAAAAAGGCACACAAACATATGTAGACATA [CACACA_site2284],6.61
19,TCGTGTGTAATATTATATATATATATATAATATATA [TGCATGCA_negctrl_site289],7.48
20,TTTTAAGGTGTGAAGGTGCAAAAAGGTAAATAGGAA,10.3
21,CACAAACACCCAAACACACACACACCGACATACATA [CACACA_site4410],6.87
22,AAAATACATAAACACACACACACACCGATATATATA [CACACA_site9186],7.14
23,TAAACAGAAGCACATACACACACTCAAAAAAAAAAA [CACACA_site3051],6.46

row,Sequence,gcPBM binding intensity (ln)
1,AATATTTATAAATTTACACACACACGGGTGAACATA [CACACA_site6979],6.75
2,TTTAATTCCATAAGTAAACACACAAATGCCAAAATT [CACACA_site9049],6.94
3,ATTCTAAATTAAAATACACACATATATACATAATAT [CACACA_site2792],6.72
4,CAATTTGGTGTACAGGTGCACATGCCTCACGATAAA [GTGCAC_site9650],9.16
5,AAAAAAAAAAAAAAATGTACATATTAAGTATAATTA [XGTACX_site4616],6.23
6,GAAAAATGTAAATACATATATGTACACAAATATATA [GTGCAC_negctrl_site557],6.59
7,TTAGCTCAATTTTTGGGTACACACAAATGTATAATA [XGTACX_site5003],6.59
8,TATAGTTTTATTATTTATGTGTTAAAATTATACAAG [TGCATGCA_negctrl_site246],6.17
9,CATACCATACATAAAACACACAAAATTTACATAATA [CACACA_site3100],6.64
10,TTCCTCTTAATATGTGCACACTAAATTATAACATAA [CACACA_site3260],11.1
11,TTCTGCAGCAATGTTTTTTTTAAATATTTATATGGT [CACACA_negctrl_site1815],6.51
12,AAAAAAATAACAAAGTGTACTTTTATATTTTACATA [XGTACX_site8954],5.78
13,ACCCATTTTAATTTAGTGCACATTTTACCTTTATAC,10.1
14,GCTAGTTTTTTTTGGCGTACAGTACCGGTTTACTTT [XGTACX_site2606],6.57
15,AAAAAAAAATATCACACACACATAAATATAAACCAA [CACACA_site2279],6.98
16,AGGCACTTATAATAATGTACATAAATAAAAAGAAAA [XGTACX_site6037],6.73
17,TAAAACATCAAGGGGTGTACAAAAAAGATGAACAGG [XGTACX_site6929],6.81
18,AAAAAAAAAAAAACTACACACATAAAATATATTGTG [CACACA_site805],6.4
19,AGAGCATAATAAAACACACACATACATACATATATA [CACACA_site935],8.5
20,ATTGGGTTCATCAGCACACACAACATCATGTAATAA [CACACA_site5093],6.38
